According to PubChem BioAssay AID1963576 (National Center for Advancing Translational Sciences (NCATS), 2024):
Hit rate of the full screen: of about 46,000 compounds, about 60 (0.1%) were called active. Inconclusive results (about 3%) are left out. The call rests on the fitted dose curve; in most records, active means well fitted inhibition curve with a large enough effect; inconclusive means small, poorly fitted or top-dose-only effect; inactive means no such curve, though single readings can be large or run the other way. This is one part of the list.

assay: Primary qHTS assay for Inhibitors of ovarian cancer metastasis using an organotypic tumor microenvironment (TME) model.; further: nearly all actives have a fitted effect of over 65% in size;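 on Potency: count of GFP cancer cells still attached after washing and fixation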;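 on activity change, negative = inhibition: plate controls were DMSO wells for no effect and tomatine positive control wells for full effect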; details: SKOV3ip1-GFP adhesion/invasion on 3D omental model, fluorescence; series mostly up to 45.8 µM; activity change, negative = inhibition: at the top concentration
In short: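 Primary human omental fibroblast/mesothelial 3D culture pre-formed 48 h. SKOV3ip1-GFP cells added with compounds (0.36-46 umol/L), incubated 2 h RT/16 h 37 C, fixed; GFP cells quantified at 488/509 nm.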
Potency means the concentration at half of the fitted maximal effect.

Row | Structure (SMILES) | activity change, negative = inhibition | outcome | Potency
1 | COc1ccccc1C1=NS(=O)(=O)N(C)C(C(=O)Nc2cc(OC)c(OC)c(OC)c2)=C1 | inactive: 10.7% | – | –
2 | COc1ccc(-c2nc(C)c(CCNC(=O)c3ccc(F)c(F)c3)s2)cc1 | inactive: 0.728% | – | –
3 | Cc1ccccc1CNC(=O)c1cccc(NC(=O)c2nsc3ccccc23)c1 | inactive: 2.04% | – | –
4 | CC(C)c1cc(C(C)C)c(CC(=O)NS(=O)(=O)Oc2c(C(C)C)cccc2C(C)C)c(C(C)C)c1 | inactive: -10.7% | – | –
5 | CCC1=Nc2cc(C(=O)NCc3ccccc3OC)ccc2Sc2ccc(Cl)cc21 | inactive: -5.06% | – | –
6 | Cc1c(CC(=O)N2CCCCC2)c(=O)oc2cc3occ(C(C)(C)C)c3cc12 | – | inactive | –
7 | COc1ccc(-c2cn3cccnc3n2)cc1NC(=O)COc1ccccc1 | inactive: -7.97% | – | –
8 | O=S(=O)(NCc1ccccc1Cl)c1ccc(-c2cnc(C3CC3)o2)cc1 | – | inactive | –
9 | COc1ccc(N2C(=O)CSC23C(=O)N(Cc2ccccc2F)c2ccccc23)cc1Cl (stereo not drawn) | inactive: 5.09% | – | –
10 | COc1ccc(-c2oc3cc(OC)ccc3c2C(=O)c2ccc(C#N)cc2)cc1 | inactive: -18.8% | – | –
11 | Cc1ccc(S(=O)(=O)C2(C(=O)Nc3ccc(C)c(Cl)c3)CC2)cc1 | – | inactive | –
12 | CCC(=O)N1c2ccccc2CC1C(=O)NCCc1ccccc1Cl (stereo not drawn) | – | inactive | –
13 | Cc1ccc(OCC(=O)Nc2ccc(OCc3cc(=O)n4ccsc4n3)cc2)cc1 | – | inactive | –
14 | Cc1cc(C)c2c(n1)SCC(=O)N2CC(=O)Nc1ccc(C)c(C)c1 | – | inactive | –
15 | COCCNc1ncnc2c1cnn2-c1cc(Cl)ccc1C | inactive: 1.6% | – | –
16 | Cn1nc(C(=O)NCc2cccc(Cl)c2)c2c1-c1ccccc1SC2 | inactive: -1.67% | – | –
17 | CN1CCN(C(c2ccc(Cl)cc2Cl)c2sc3nc(-c4ccco4)nn3c2O)CC1 (stereo not drawn) | inactive: 2.5% | – | –
18 | O=C(NCc1ccc(Cl)cc1)c1ccc(NC(=O)N2CC3CCCN3c3ccccc32)cc1 (stereo not drawn) | inactive: 8.01% | – | –
19 | Cc1ccc(Cl)cc1N1CCN(C(=O)CN2C(=O)COc3ccc(S(=O)(=O)N4CCC(C)CC4)cc32)CC1 | inactive: 2.18% | – | –
20 | COc1ccc(N2CCN(c3ncnc4c3cnn4-c3ccc(C)c(Cl)c3)CC2)cc1 | – | inactive | –
21 | CC(C)(C)C(=O)NC1(C(F)(F)F)NC(=O)N(c2ccc(F)cc2)C1=O (stereo not drawn) | inactive: 2.91% | – | –
22 | COc1ccc(N2CCN(CC(O)COc3ccc(C)cc3C)CC2)cc1 (stereo not drawn) | inactive: 10.9% | – | –
23 | Cc1ccc(CNC(=O)CCS(=O)(=O)c2cc3c(cc2Cl)NC(=O)CO3)cc1 | – | inactive | –
24 | CNc1nc(Nc2ccc(C(=O)N3CCOCC3)cc2OC)ncc1Cl | inactive: -6.91% | – | –

Row | Structure (SMILES) | activity change, negative = inhibition | outcome | Potency
25 | CCOc1ccccc1CNS(=O)(=O)c1ccc2c(c1)C(C)(C)C(=O)N2C | inactive: -14.8% | – | –
26 | CCOC(=O)CN(Cc1ccccc1)C(C(=O)NC1CCCCC1)c1ccc(C)cc1 (stereo not drawn) | inactive: -7.46% | – | –
27 | CCOC(=O)C1CCN(C(=O)Cn2c(-c3cccs3)cc3cc(Cl)ccc32)CC1 | inactive: 5.51% | – | –
28 | CCC(=O)N1CCc2cc(S(=O)(=O)NC(C(=O)NCc3ccccc3Cl)C(C)C)ccc21 (stereo not drawn) | inactive: -7.79% | – | –
29 | Cc1nn(C(=O)c2ccccc2)c(C)c1S(=O)(=O)N1CCOCC1 | inactive: 24.7% | – | –
30 | COc1ccc(CNC(=O)c2ccc(-c3nc(CSc4ccc(C)cc4)c(C)o3)cc2)cc1OC | inactive: 1.88% | – | –
31 | O=C(NCc1ccc(F)cc1)c1cc(Sc2ccc(F)cc2F)nc2ccccc12 | inactive: -28.8% | – | –
32 | Cc1c(C(=O)NCc2ccccc2Cl)sc2nc(-c3ccc(F)cc3)cn12 | inactive: 3.93% | – | –
33 | CCOC(=O)c1ccc(NC(=O)CSc2nnc(CNC(=O)c3ccc(OC)cc3)n2CC)cc1 | – | inactive | –
34 | COc1ccc(NC(=O)CC2C(=O)N(c3ccc(C)cc3)C(=O)N2Cc2ccc3c(c2)OCO3)cc1 (stereo not drawn) | inactive: -27.7% | – | –
35 | Cc1ccccc1Cn1nnc2c(=O)[nH]c(C3CCCN(C(=O)c4ccc(F)cc4)C3)nc21 (stereo not drawn) | inactive: -15.3% | – | –
36 | O=C(Nc1nnc(S(=O)(=O)N2CCCC2)s1)c1ccccc1Br | inactive: 4.15% | – | –
37 | Cc1ccccc1OCCCn1c(-c2ccc(Cl)cc2)nc2ccccc2c1=O | inactive: -6.57% | – | –
38 | Cn1c(=O)oc2cc(S(=O)(=O)N3CCC(C(=O)NCc4ccc(F)cc4)CC3)ccc21 | – | inactive | –
39 | COc1ccc(Nc2nc3cc(Cl)c(Cl)cc3n3cnnc23)cc1Cl | inactive: 7.57% | – | –
40 | Cc1ccc(C)c(CN2C(=O)c3ccccc3S(=O)c3ccc(C(=O)N4CCN(c5ccccc5F)CC4)cc32)c1 (stereo not drawn) | – | inactive | –
41 | Cc1ccc2c(c1)N(C(=O)CCC(=O)NCc1cccs1)CCO2 | inactive: 5.19% | – | –
42 | COc1cc(N2C(=O)CSC23C(=O)N(Cc2ccc(C)cc2)c2ccccc23)cc(OC)c1OC (stereo not drawn) | – | inactive | –
43 | CCC(C)n1c(SCc2c(F)cccc2Cl)nc2ccsc2c1=O (stereo not drawn) | inactive: -2.07% | – | –
44 | COc1ccc(N2CCN(S(=O)(=O)c3ccc4c(c3)CCCN4C(C)=O)CC2)cc1 | inactive: 15.2% | – | –
45 | COc1cc2c(cc1OC)C(COc1ccc(C(C)C)cc1)N(C(=O)c1ccc(S(=O)(=O)N3CCCC3)cc1)CC2 (stereo not drawn) | inactive: 113% | – | –
46 | CC1CCN(CCCNC(=O)c2cn(C)c3ccc(S(=O)(=O)N(C)C4CCCCC4)cc3c2=O)CC1 | inactive: -8.67% | – | –
47 | COc1cc2c(cc1OC)C(COc1ccc(F)cc1)N(C(=O)c1ccc(S(=O)(=O)N3CCCC3)cc1)CC2 (stereo not drawn) | inactive: -19.7% | – | –
48 | COc1cc(C2CC(=O)N(Cc3ccc(F)cc3)c3ccccc3S2)cc(OC)c1OC (stereo not drawn) | inactive: -4.37% | – | –

Row | Structure (SMILES) | activity change, negative = inhibition | outcome | Potency
49 | CCc1cc(C(=O)NC(C)c2ccccc2)no1 (stereo not drawn) | inactive: 1.14% | – | –
50 | COc1ccc(Br)c(C(=O)Nc2cc3c(cc2N2CCCCC2)n(C)c(=O)c(=O)n3C)c1 | inactive: -2.85% | – | –
51 | COC(=O)c1cc(NC(=O)[C@H](CCS(C)(=O)=O)N2Cc3ccccc3C2=O)cc(C(=O)OC)c1 | inactive: -7.69% | – | –
52 | CCc1ccc(-c2nc3cc(NC(=O)c4cc5ccccc5cc4OC)ccc3o2)cc1 | inactive: -24.9% | – | –
53 | Cc1ccc(-n2nc(CO)c(C(=O)NCc3cccs3)n2)cc1C | inactive: 4.57% | – | –
54 | CCOc1ccc(-c2cc(-c3nc(-c4cc(OC)c(OC)c(OC)c4)no3)[nH]n2)cc1Cl | inactive: -4.75% | – | –
55 | Cc1cccc(NC(=O)c2c(C)cc(C)nc2SCC(=O)Nc2c(C)cc(C)cc2C)c1 | inactive: -6.4% | – | –
56 | CC(=O)Nc1ccc(NC(=O)c2ccc(COc3ccc(Cl)cc3Cl)o2)cc1 | inactive: 1.19% | – | –
57 | O=C(CCCn1c(=O)c2ccccc2n(Cc2ccc(F)cc2Cl)c1=O)NCCc1ccc(Cl)cc1 | inactive: 33.2% | – | –
58 | COC(=O)c1ccccc1NC(=O)c1ccc2nc(Cc3ccccc3)oc2c1 | inactive: -3.05% | – | –
59 | CC(=O)c1cccc(NC(=O)CSc2nc(=O)n(Cc3cccnc3)c3c2CCC3)c1 | inactive: -1.71% | – | –
60 | Oc1c(C(c2ccccc2F)N2CCCCC2)sc2nc(-c3ccco3)nn12 (stereo not drawn) | inactive: -2.73% | – | –
61 | Nc1cc(=O)nc(SCC(=O)Nc2ccc(F)cc2)n1-c1ccccc1Cl | inactive: -8.68% | – | –
62 | COc1ccc(C)cc1NC(=O)C1CCN(S(=O)(=O)c2ccc3[nH]c4c(c3c2)CCCCC4)CC1 | inactive: -4.27% | – | –
63 | Cc1cc(C)cc(NC(=O)CCCN2C(=O)COc3ccc(C)cc32)c1 | – | inactive | –
64 | Cc1ccccc1Nc1c(-c2ccc(Cl)s2)nc2c(C)cccn12 | inactive: 8.48% | – | –
65 | COc1ccc(-n2ncc(C(=O)N3CCN(c4ncccn4)CC3)c2C2CCN(C(=O)OC(C)(C)C)CC2)cc1 | – | inactive | –
66 | COc1ccc(CNC(=O)c2cc(-c3cccc(Cl)c3)on2)cc1 | inactive: 5.59% | – | –
67 | Cc1c(C(=O)N2CCC(C)CC2)c(S(=O)(=O)NCc2ccc(Br)cc2)c(C)n1C | – | inactive | –
68 | CCCCc1nc2ccccc2n2c(-c3ccc(OC)cc3)c3c(=O)n(C)c(=O)n(C)c3c12 | inactive: 6.38% | – | –
69 | CC(C)c1ccc(NC(=O)C2CCN(c3nc(-c4ccc(C(C)C)cc4)no3)CC2)cc1 | inactive: -36.5% | – | –
70 | Cc1ccc(NC(=O)c2cn3c4c(ccc(Cl)c4c2=O)OC(C)C3)c(C)c1 (stereo not drawn) | inactive: 5.6% | – | –
71 | CC(C)CC(=O)Nc1ccc(S(=O)(=O)Nc2cc3c(cc2N2CCOCC2)n(C)c(=O)c(=O)n3C)cc1 | inactive: 3.76% | – | –
72 | O=C(CCc1cn(Cc2ccccc2Cl)c2ccccc12)NC1CCCCC1 | inactive: 3.01% | – | –

Row | Structure (SMILES) | activity change, negative = inhibition | outcome | Potency
73 | O=C(Nc1ccc2c(c1)CCCN2C(=O)c1cccs1)c1c(F)cccc1F | inactive: -0.353% | – | –
74 | CC(C)c1ccc(NC(=O)c2ccc3c(c2)CCCN3S(C)(=O)=O)cc1 | inactive: -5.63% | – | –
75 | Cc1ccc(N2CC(NC(=O)c3ccc(S(=O)(=O)N4CCCC4)cc3)CC2=O)cc1 (stereo not drawn) | – | inactive | –
76 | CC(C)(C)OC(=O)N1CCC(c2c(C(=O)NCCCN3CCc4ccccc4C3)cnn2-c2ccccc2)CC1 | – | inactive | –
77 | COc1ccc(-c2c(C)c3cc(OC(=O)N4CCOCC4)ccc3oc2=O)cc1 | inactive: -5.39% | – | –
78 | CCOc1ccccc1NC(=O)Cn1c(=O)n(CCCC(=O)NCCc2ccc(C)cc2)c(=O)c2ccccc21 | inactive: 20.6% | – | –
79 | COc1ccc(OC)c(NC(=O)CCc2c(C)nn(-c3ccc(N4CCCC4)nn3)c2C)c1 | – | inactive | –
80 | C=C1C(=O)[C@@]23C(CC[C@@H]1[C@H]2O)[C@@]12CO[C@]3(O)[C@@H](O)[C@@H]1C(C)(C)CC[C@@H]2O (stereo partly drawn) | – | – | active: 18.7 µM
81 | COc1ccc(OC)c(CCNC(=O)C2CCN(c3ncnc4c3nc3n4CCCCC3)CC2)c1 | inactive: -8.67% | – | –
82 | N#Cc1c(-n2ncnc2-c2ccc(Br)cc2)sc2c1CCCCC2 | inactive: -0.347% | – | –
83 | CSc1ccc(CNC(=O)C2CCN(c3nnc(-n4cccc4CNc4ccc(C)cc4)s3)CC2)cc1 | – | inactive | –
84 | CCc1ccc(CNC(=O)CN(c2ccc(C)cc2)S(=O)(=O)N(C)C)cc1 | inactive: -8.31% | – | –
85 | COc1ccc(-c2nc(C)c(CCNC(=O)C(=O)Nc3c(C)cccc3C)s2)cc1OC | inactive: 2.04% | – | –
86 | O=C(Cn1cc(SCc2ccccc2)c2ccccc21)N1CCCCC1 | inactive: -2.31% | – | –
87 | CCN(CC)S(=O)(=O)c1ccc2c(c1)c(=O)c(C(=O)NCCc1ccc(OC)c(OC)c1)cn2C | – | inactive | –
88 | CCOC(=O)c1ccccc1NC(=O)c1c(-c2ccccc2)noc1C | inactive: -36.6% | – | –
89 | Cc1nc2ccn(Cc3ccccc3)c(=O)c2cc1C(=O)Nc1ccc(F)cc1Cl | – | inactive | –
90 | COC(=O)CNC(c1ccccc1)c1cc(Br)ccc1NC(=O)c1ccc(Cl)cc1 (stereo not drawn) | inactive: 7.45% | – | –
91 | Cc1coc2cc3oc(=O)c(CCC(=O)N4CCCCC4)c(C)c3cc12 | inactive: 21.6% | – | –
92 | CCC(=O)N1CCc2cc(Br)cc(S(=O)(=O)NCc3cccc(OC)c3)c21 | – | inactive | –
93 | COc1cccc(CN(C(=O)c2oc3ccc(Br)cc3c2C)C2CCS(=O)(=O)C2)c1 (stereo not drawn) | inactive: -11.3% | – | –
